# Assay results reported in PubChem BioAssay (Tox21).
# Where “and” joins values, the source holds several entries; their conditions need not be identical. Identical values can stand only once. Calls of active or inactive are those of the source. Unless noted, the call rests on the fitted dose curve; in most records, active means well fitted curve in the direction sought with a large enough effect in the repeat runs; inconclusive means weak or mixed curves; inactive means no such curve, though single readings can be large; an effect the other way counts as inactive or inconclusive.
# Columns and labels:
# [1] = qHTS assay to identify small molecule antagonists of the androgen receptor (AR) signaling pathway - cell viability counter screen (AID 743033; further: nearly all actives have a fitted effect of over 45% in size; further: potency means the concentration at half of the fitted maximal effect; on activity change, negative = cytotoxicity: on the % scale 0 is the no-effect control and ±100 the full control effect); details: AR-bla HEK293 viability, CellTiter-Glo luminescence, 16 h; activity change, negative = cytotoxicity: at 58.5 µM (top of the series) unless noted
# [2] = qHTS assay to identify small molecule antagonists of the thyroid receptor (TR) signaling pathway - cell viability counter screen (AID 743064); details: GH3.TRE-Luc viability, CellTiter-Fluor, 24 h; activity change, negative = cytotoxic: at 70.3 µM (top of the series) unless noted; further: nearly all actives have a fitted effect of over 50% in size; further: potency means the concentration at half of the fitted maximal effect
# In short: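 Same-well viability check: GH3.TRE-Luc cells stimulated with 1 nM T3 alongside test compound for 23.5 h, followed by CellTiter-Fluor fluorescence.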
# [3] = qHTS assay to identify small molecule antagonists of the androgen receptor (AR) signaling pathway using the MDA cell line - cell viability counter screen (AID 743041; further: nearly all actives have a fitted effect of over 45% in size; further: potency means the concentration at half of the fitted maximal effect; on viability change, negative = cytotoxic: on the % scale 0 is the no-effect control and ±100 the full control effect); details: MDA-kb2 viability, CellTiter-Fluor, 16 h, cells co-treated with R1881 androgen agonist; viability change, negative = cytotoxic: at 70.3 µM (top of the series) unless noted
# In short: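 Cytotoxicity counter screen: MDA-kb2 AR-luc cells, compound + R1881, 16 h, 37C, 0% CO2; CellTiter-Fluor added at 15.5 h, fluorescence read after 30 min.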
# [4] = target: Estrogen receptor (Homo sapiens) (UniProt P03372); experiment: qHTS assay to identify small molecule agonists of the estrogen receptor alpha (ER-alpha) signaling pathway (AID 743075; calls by dose curve;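 further: HEK293 GripTite cells with ER-alpha and UAS-driven beta-lactamase reporter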; further: potency means the concentration at half of the fitted maximal effect)
# [5] = qHTS assay to identify small molecule antagonists of the estrogen receptor alpha (ER-alpha) signaling pathway using the BG1 cell line (AID 743080; calls by dose curve;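 further: BG1 cells stimulated with 17beta-estradiol alongside compound; potency means the concentration at half of the fitted maximal effect; nearly all actives have a fitted effect of over 25% in size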); details: BG1Luc4E2 ERE-luciferase antagonist mode, luminescence; activity change, negative = inhibition: at 70.3 µM (top of the series) unless noted
# In short: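 Readout is ONE-Glo luminescence, taken 30 min at room temperature after reagent addition, preceded by a CellTiter-Fluor viability read; BG1-Luc-4E2 cells had received compound and 17beta-estradiol for 21.5 h at 37 C.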
# [6] = qHTS assay to identify small molecule antagonists of the estrogen receptor alpha (ER-alpha) signaling pathway using the BG1 cell line - cell viability counter screen (AID 743081); details: BG1Luc4E2 viability, CellTiter-Fluor, 22 h; activity change, negative = cytotoxicity: at 70.3 µM (top of the series) unless noted;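 further: compound given together with 17beta-estradiol as the ER stimulus; potency means the concentration at half of the fitted maximal effect; nearly all actives have a fitted effect of over 45% in size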
# [7] = tested on: thyroid hormone receptor (rat, GH3 cells); experiment: qHTS assay to identify small molecule agonists of the thyroid receptor (TR) signaling pathway (AID 743066; calls by dose curve; further: potency means the concentration at half of the fitted maximal effect); details: GH3.TRE-Luc cells, TR agonist luciferase, 24 h; activation: at 83.9 µM (top of the series) unless noted
# [8] = target: Estrogen receptor (Homo sapiens) (UniProt P03372); experiment: qHTS assay to identify small molecule antagonists of the estrogen receptor alpha (ER-alpha) signaling pathway (AID 743069; active means well fitted curve in the direction sought with a large enough effect in the signal ratio in the repeat runs, not every such curve was filed as active; inconclusive means weak or mixed curves, or effect the other way; inactive means no such curve, though single readings can be large or run the other way; the % refers to the signal ratio; further: potency means the concentration at half of the fitted maximal effect); details: HEK293 ER-alpha-UAS-bla, beta-lactamase ratio, antagonist mode; activity, negative = inhibition: at 69.4 µM (top of the series) unless noted
# In short: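 Beta-lactamase FRET fluorescence is read after 2 hr at room temperature with LiveBLAzer B/G substrate. Before that, ER-alpha-bla HEK293 cells sit 4 hr after plating, then receive compound plus 17beta-estradiol and incubate 18 hr at 37C.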
# [9] = target: Estrogen receptor (Homo sapiens) (UniProt P03372); experiment: qHTS assay to identify small molecule agonists of the estrogen receptor alpha (ER-alpha) signaling pathway using the BG1 cell line (AID 743079); details: BG1Luc4E2 cells, ERE-luciferase agonist, 22 h; activation: at 70.3 µM (top of the series) unless noted; further: nearly all actives have a fitted effect of over 20% in size; further: potency means the concentration at half of the fitted maximal effect; on activation: on the % scale 0 is the no-effect control and ±100 the full control effect
# [10] = qHTS assay to identify small molecule antagonists of the thyroid receptor (TR) signaling pathway (AID 743065); further: nearly all actives have a fitted effect of over 55% in size; further: potency means the concentration at half of the fitted maximal effect
# In short: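 GH3.TRE-Luc rat pituitary cells (two TREs driving luciferase) were dosed with compound, then stimulated with 1 nM T3 (final) for 23.5 h at 37 C. ONE-Glo luminescence was the read-out, with CellTiter-Fluor fluorescence as the cytotoxicity counter-screen.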
# [11] = qHTS assay to identify small molecule antagonists of the estrogen receptor alpha (ER-alpha) signaling pathway - cell viability counter screen (AID 743074; calls by dose curve;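 further: HEK293 cells carrying ER-alpha-UAS-bla reporter stimulated with 17beta-estradiol; nearly all actives have a fitted effect of over 45% in size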; further: potency means the concentration at half of the fitted maximal effect)
# Aromatase (Homo sapiens) = Aromatase (Homo sapiens) (UniProt P11511); experiment: qHTS assay to identify aromatase inhibitors (AID 743083); details: MCF-7 aro ERE, testosterone-driven ERE luciferase, 24 h; activity, negative = inhibition: at 70.3 µM (top of the series); further: nearly all actives have a fitted effect of over 55% in size; further: potency means the concentration at half of the fitted maximal effect
# [12] = target: Androgen receptor (Homo sapiens) (UniProt P10275); experiment: qHTS assay to identify small molecule antagonists of the androgen receptor (AR) signaling pathway (AID 743035; active means well fitted inhibition curve with a large enough effect in the signal ratio in the repeat runs, not every such curve was filed as active; inconclusive means weak or mixed curves, or effect the other way; inactive means no such curve, though single readings can be large or run the other way; the % refers to the signal ratio; further: potency means the concentration at half of the fitted maximal effect; on activity change, negative = inhibition: on the % scale 0 is the no-effect control and ±100 the full control effect); details: HEK293 AR-UAS-bla, R1881-stimulated, beta-lactamase FRET, 16 h; activity change, negative = inhibition: at 58.5 µM (top of the series) unless noted
# In short: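 Steps: seed AR-UAS-bla GripTite HEK293 cells, incubate 4 h at 37C; pin in test compound, then add agonist R1881; incubate 16 h at 37C; add LiveBLAzer B/G FRET substrate, 2 h at room temperature; read fluorescence.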
# [13] = target: Androgen receptor (Homo sapiens) (UniProt P10275); experiment: qHTS assay to identify small molecule agonists of the androgen receptor (AR) signaling pathway (AID 743036; active means well fitted activation curve with a large enough effect in the signal ratio in the repeat runs, with a control signal flat, not every such curve was filed as active; inconclusive means weak or mixed curves, or effect the other way; inactive means no such curve, though single readings can be large or run the other way; the % refers to the signal ratio; further: potency means the concentration at half of the fitted maximal effect); details: HEK293 AR-UAS-bla GripTite, beta-lactamase FRET ratio, 16 h; activation: at 62.4 µM (top of the series) unless noted
# In short: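 Agonist activity was scored by beta-lactamase reporter fluorescence in stably transfected HEK293 cells exposed to compounds for 16 h at 37C and 5% CO2. Substrate loading took 2 h at room temperature.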
# [14] = target: Androgen receptor (Homo sapiens) (UniProt P10275); experiment: qHTS assay to identify small molecule antagonists of the androgen receptor (AR) signaling pathway using the MDA cell line (AID 743042; further: on the % scale 0 is the no-effect control and ±100 the full control effect; nearly all actives have a fitted effect of over 55% in size)
# In short: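 MDA-kb2 breast carcinoma cells carrying MMTV-luciferase (AR/GR responsive) were co-treated with compounds and the agonist R1881 for 16 h at 37C. Inhibition read as ONE-Glo luminescence; CellTiter-Fluor fluorescence measured in parallel for cytotoxicity.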
# [15] = target: Androgen receptor (Homo sapiens) (UniProt P10275); experiment: qHTS assay to identify small molecule agonists of the androgen receptor (AR) signaling pathway using the MDA cell line (AID 743040; further: potency means the concentration at half of the fitted maximal effect; nearly all actives have a fitted effect of over 20% in size); details: MDA-kb2 AR-luc cells, MMTV luciferase, 16 h; activity change: at 70.3 µM (top of the series), stronger effect = higher value
# In short: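 Luciferase read-out, ONE-Glo, 30 min RT. Cells: MDA-kb2 AR-luc, MMTV promoter with AR and GR response elements. Compound exposure 16 h, 37C, 0% CO2, after 5 h pre-incubation. qHTS agonist mode.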
# Tags describe the fitted curve by direction and shape or compound fluorescence and quenching.
# Chain of UniProt P10275 (P10275 whole entry, looked up): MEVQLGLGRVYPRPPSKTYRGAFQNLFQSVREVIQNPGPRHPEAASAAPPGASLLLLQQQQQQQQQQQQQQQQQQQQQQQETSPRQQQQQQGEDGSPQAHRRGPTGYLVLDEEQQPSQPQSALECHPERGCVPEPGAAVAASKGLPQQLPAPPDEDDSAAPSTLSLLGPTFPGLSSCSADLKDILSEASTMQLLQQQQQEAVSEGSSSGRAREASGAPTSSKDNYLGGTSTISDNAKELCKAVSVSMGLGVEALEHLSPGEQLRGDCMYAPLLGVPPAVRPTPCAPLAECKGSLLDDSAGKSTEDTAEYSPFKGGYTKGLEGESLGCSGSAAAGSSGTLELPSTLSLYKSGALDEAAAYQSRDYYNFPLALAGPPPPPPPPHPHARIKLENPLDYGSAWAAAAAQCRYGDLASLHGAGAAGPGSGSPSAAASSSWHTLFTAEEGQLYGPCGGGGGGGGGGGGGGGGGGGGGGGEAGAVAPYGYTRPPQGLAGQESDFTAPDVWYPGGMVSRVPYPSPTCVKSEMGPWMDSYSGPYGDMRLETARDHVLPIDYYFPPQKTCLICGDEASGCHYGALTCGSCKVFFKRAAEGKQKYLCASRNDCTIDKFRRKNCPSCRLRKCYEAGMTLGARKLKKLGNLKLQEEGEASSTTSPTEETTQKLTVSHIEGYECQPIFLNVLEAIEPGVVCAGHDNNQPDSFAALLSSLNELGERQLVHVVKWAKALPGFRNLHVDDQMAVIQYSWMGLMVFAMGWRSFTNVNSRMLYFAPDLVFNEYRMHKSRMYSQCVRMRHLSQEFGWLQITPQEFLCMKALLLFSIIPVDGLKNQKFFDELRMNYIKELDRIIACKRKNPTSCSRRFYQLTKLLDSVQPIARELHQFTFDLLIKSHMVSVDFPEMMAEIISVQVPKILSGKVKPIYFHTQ
# Chain of UniProt P11511 (P11511 whole entry, looked up): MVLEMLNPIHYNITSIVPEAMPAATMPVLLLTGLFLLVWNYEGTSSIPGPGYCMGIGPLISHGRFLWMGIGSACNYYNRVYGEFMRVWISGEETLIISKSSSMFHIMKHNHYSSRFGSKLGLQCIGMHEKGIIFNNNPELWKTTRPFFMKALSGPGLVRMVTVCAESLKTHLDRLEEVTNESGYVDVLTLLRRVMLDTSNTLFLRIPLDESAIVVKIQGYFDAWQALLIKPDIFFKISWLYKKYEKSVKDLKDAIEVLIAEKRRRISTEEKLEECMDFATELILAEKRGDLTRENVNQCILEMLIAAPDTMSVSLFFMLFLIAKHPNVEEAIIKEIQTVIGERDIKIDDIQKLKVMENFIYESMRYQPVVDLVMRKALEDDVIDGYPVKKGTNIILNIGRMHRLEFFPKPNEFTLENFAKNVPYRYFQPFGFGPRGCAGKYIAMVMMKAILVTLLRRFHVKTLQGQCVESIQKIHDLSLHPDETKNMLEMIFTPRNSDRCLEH
# Chain of UniProt P03372 (P03372 whole entry, looked up): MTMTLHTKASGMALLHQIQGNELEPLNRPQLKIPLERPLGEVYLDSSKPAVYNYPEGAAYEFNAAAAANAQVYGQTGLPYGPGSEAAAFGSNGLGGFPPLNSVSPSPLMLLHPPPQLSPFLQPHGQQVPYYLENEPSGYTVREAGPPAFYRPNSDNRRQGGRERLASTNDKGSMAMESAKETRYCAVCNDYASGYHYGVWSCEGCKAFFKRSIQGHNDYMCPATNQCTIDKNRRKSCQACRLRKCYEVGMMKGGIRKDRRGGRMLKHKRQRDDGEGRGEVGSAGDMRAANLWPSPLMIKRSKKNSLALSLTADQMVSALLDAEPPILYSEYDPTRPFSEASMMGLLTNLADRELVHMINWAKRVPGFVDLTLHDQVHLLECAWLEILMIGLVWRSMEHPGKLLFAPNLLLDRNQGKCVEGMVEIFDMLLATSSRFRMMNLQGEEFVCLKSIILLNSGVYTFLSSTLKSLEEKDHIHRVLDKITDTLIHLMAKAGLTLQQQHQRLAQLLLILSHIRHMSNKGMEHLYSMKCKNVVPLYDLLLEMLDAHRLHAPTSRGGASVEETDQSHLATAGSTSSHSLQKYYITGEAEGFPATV
smiles,measurement,setting,value
CCCCOCC(C)OCC(C)O (centres undefined),Potency,[1],inactive
same,Potency,[2],"inconclusive: 24.9 µM [rising, partial curve, poor fit]"
CC(N)CCCC(C)(C)O (centres undefined),Potency,[1],inactive
O=C1OCCN1/N=C/c1ccc([N+](=O)[O-])o1,Potency,[1],"inconclusive: 0.003 µM [cytotoxic, full curve, poor fit]"
same,"viability change, negative = cytotoxic",[3],inconclusive: -39.4% [cytotoxic]
same,Potency,[4],active: 0.848 µM [inconclusive]
same,Potency,[5],"inconclusive: 0.0067 µM [rising, full curve, poor fit]"
same,Potency,[6],inconclusive: 33.5 µM [cytotoxic]
CCN(CC)CCNc1ccc(CO)c2sc3ccccc3c(=O)c12,Potency,[1],"inconclusive: 7.56 µM [cytotoxic, partial curve, poor fit]"
same,Potency,[7],inconclusive: 4.22 µM [inhibitor]
same,Potency,[8],active: 30.1 µM [inconclusive]
same,activation,[9],inconclusive: -6.51% [phenotype inactive]
same,Potency,[5],"inconclusive: 37.6 µM [falling, single point]"
same,Potency,[6],active: 13.3 µM
CCCN[C@H]1CCc2nc(N)sc2C1,Potency,[1],"inconclusive: 0.0015 µM [rising, full curve, poor fit]"
same,Potency,[3],inactive
same,Potency,[6],"inconclusive: 0.188 µM [cytotoxic, full curve]"
CCN(CC)C(=O)c1cc(S(=O)(=O)Cc2ccccc2)c(N2CCC(c3ccccc3)CC2)cc1N(CC)CCN(C)C,Potency,[1],"inconclusive: 26.8 µM [cytotoxic, partial curve, poor fit] and active: 15.3 µM"
same,Potency,[3],"inconclusive: 33.5 µM [cytotoxic, single point] and inconclusive: 24.1 µM [cytotoxic, single point]"
same,Potency,[10],active: 4.22 µM and active: 4.8 µM
same,Potency,[7],"inconclusive: 5.96 µM [inhibitor, partial curve, poor fit]"
same,Potency,[8],inconclusive: 26.8 µM [single point]
same,Potency,[11],"inconclusive: 26.8 µM [cytotoxic, single point] and inconclusive: 17.2 µM [cytotoxic, partial curve, poor fit]"
same,Potency,[9],inconclusive: 33.5 µM [inhibitor]
same,Potency,[6],"inconclusive: 422 nM [cytotoxic, full curve, poor fit] and inconclusive: 1.91 µM [cytotoxic, partial curve, poor fit]"
same,Potency,Aromatase (Homo sapiens),"inconclusive: 33.5 µM [inhibitor, single point] and inconclusive: 24.1 µM [inhibitor, single point]"
COC(C)COC(C)COC(C)CO (centres undefined),Potency,[12],inactive
same,Potency,[10],inactive
same,Potency,[11],"inconclusive: 1.23 µM [cytotoxic, full curve, poor fit]"
same,activation,[9],inconclusive: 14.9% [phenotype inactive]
CC(C)[C@H]1CC[C@H](C)C[C@@H]1O,Potency,[12],inactive
C=C(C)C(=O)OCCOC(=O)C(=C)C,Potency,[13],inactive
same,Potency,[3],inactive
same,Potency,[8],inactive
same,Potency,[11],"inconclusive: 50.2 µM [cytotoxic, single point]"
CCOC(=O)c1ncn2c1CN(C)C(=O)c1cc(F)ccc1-2,Potency,[12],inactive
same,Potency,[13],inactive
same,Potency,[4],inactive
Cc1ccccc1Cl,Potency,[13],inactive
same,Potency,[14],inactive
same,Potency,[2],"inconclusive: 5.45 µM [rising, full curve, poor fit]"
same,Potency,[4],inactive
CC(C)OC(=O)c1ccccc1,Potency,[1],inactive
same,Potency,[11],"inconclusive: 46 µM [rising, single point]"
same,Potency,[9],inactive
Nc1cc(Cl)c(O)c(Cl)c1,Potency,[12],inconclusive: 61.6 µM
same,Potency,[13],"inconclusive: 43.6 µM [fluorescent, partial curve]"
same,Potency,[2],"inconclusive: 19.3 µM [rising, partial curve]"
same,Potency,[10],"inconclusive: 68.6 µM [inhibitor, single point]"
same,Potency,[7],inactive
same,Potency,[8],"inconclusive: 54.9 µM [fluorescent, partial curve, poor fit]"
same,Potency,[11],inactive
CCC(=O)OCCc1ccccc1,Potency,[1],"inconclusive: 59.1 µM [cytotoxic, single point]"
same,Potency,[9],inactive
same,Potency,Aromatase (Homo sapiens),"inconclusive: 58.5 µM [inhibitor, single point]"
OCC1CCC(CO)CC1 (centres undefined),Potency,[12],inactive
same,Potency,[2],inactive
CC/C=C\CCOC(=O)c1ccccc1,"activity change, negative = inhibition",[12],inconclusive: 15.4%
same,Potency,[13],inactive
c1ccsc1,Potency,[13],active: 5.9 µM
same,Potency,[15],"inconclusive: 3.69 µM [activator, full curve]"
same,Potency,[10],inactive
same,Potency,[8],inactive
same,Potency,[9],"inconclusive: 5.21 µM [activator, full curve, poor fit]"
same,Potency,[5],"inconclusive: 11.7 µM [rising, partial curve]"
CCN(CC)CCNC(=O)c1cc(S(C)(=O)=O)ccc1OC,Potency,[1],"inconclusive: 6.44 µM [cytotoxic, partial curve, poor fit]"
same,Potency,[8],inactive
same,Potency,[9],inactive
same,Potency,Aromatase (Homo sapiens),inactive
